Source: PubChem BioAssay AID463173 (ICCB-Longwood Screening Facility, Harvard Medical School, 2010)
Hit rate of the full screen: of about 52,000 compounds, about 4,300 (8.3%) were called active. Cut-off read from the data, not from the text of the source: active = survival mostly below about 52% (no sharp cut-off); inactive = mostly above about 56%. The list shows a part of the results.

tested on: DeltatarO mutant; experiment: growth inhibition of S. aureus wild type versus tarO mutant, primary screen, teichoic acid synthesis inhibitors, RN4220, OD600 (AID 463173); details: OD600, 18 h, active compounds read low, screened at 18.75 µg/mL (by protocol)

SMILES | survival
CCOc1ccc(/C=C/c2nc(C#N)c(Nc3ccc(OCC)cc3)o2)cc1 | inactive: 84%
Cc1c(-c2ccccc2)c(=O)oc2c(CN3CCCC3)c(O)ccc12 | inactive: 97%
CCc1ccc(C2CC(=O)NC(NC(=O)c3ccc(C(C)(C)C)cc3)=N2)cc1 (stereo not drawn) | inactive: 53%
CCc1cccc(NC(=O)Cn2c(=O)n(CCC(=O)NCC3CCCO3)c(=O)c3cc(OC)c(OC)cc32)c1 (stereo not drawn) | inactive: 62%
Cc1ccc(-c2nc3ncccc3o2)cc1NC(=O)c1ccccc1Br | inactive: 53%
O=C(NCCC1=CCCCC1)C1CC(O)CN1C(=O)Nc1ccccc1 (stereo not drawn) | inactive: 87%
Cc1ccc(CNC(=O)c2cc3c(s2)-c2ccc(Cl)cc2SC3)cc1 | inactive: 69%
Cc1ccc(CSC2=Nc3ccccc3C3=NC(CC(=O)NCc4cccs4)C(=O)N23)cc1 (stereo not drawn) | inactive: 80%
CCOc1ccc(NC(=O)Cn2c(=O)n(Cc3ccc(C(=O)NCc4ccc(C)cc4)cc3)c(=O)c3ccccc32)cc1 | inactive: 75%
COc1cccc(CNC(=O)CN2C(=O)COc3ccc(S(=O)(=O)N4CCCCCC4)cc32)c1 | inactive: 82%
CC1CCCCN1Cc1c(O)ccc2c(=O)c(-c3ccccc3)coc12 (stereo not drawn) | inactive: 54%
CCOC(=O)C1=C(CN2CCCCC2)NC(=O)NC1c1ccc(C)cc1 (stereo not drawn) | inactive: 85%
COc1cccc(CNS(=O)(=O)c2ccc(N3CCCCS3(=O)=O)cc2)c1 | inactive: 84%
Cc1ccc(CNC(=O)c2sc3nc(-c4ccc(F)cc4)ccc3c2N)cc1 | inactive: 131%
CCOc1ccc(C(CC(=O)Nc2cc(C)c(Cl)cc2OC)N2Cc3ccccc3C2=O)cc1OC (stereo not drawn) | inactive: 70%
COc1ccc(C(=O)Nc2nnc(S(=O)(=O)N3CCC(C)CC3)s2)cc1OC | inactive: 79%
CCN(C(=O)C1CCCN(c2ncnc3onc(-c4ccc(F)cc4)c23)C1)c1ccccc1 (stereo not drawn) | inactive: 104%
O=C(NC1CCCC1)c1cc(-c2ccccc2)on1 | inactive: 90%
CC(=O)N1CCN(c2ccccc2N)CC1 | inactive: 93%
O=C(NCC1CCCO1)c1c[nH]c2ccc(S(=O)(=O)Nc3ccc(F)cc3F)cc2c1=O (stereo not drawn) | inactive: 85%

SMILES | survival
CCOc1ccc(NC(=O)NCCn2nnc3cc(S(=O)(=O)N(C)C)ccc32)cc1 | inactive: 74%
CC(C)(C)c1ccc(-c2nc(S(=O)(=O)c3ccccc3)c(N3CCOCC3)o2)cc1 | active: 37%
CCNc1nc(NC(C)C)nc(OCCNC(=O)COc2ccc(Cl)cc2C)n1 | inactive: 60%
Cc1ccc(N2CC(NC(=O)c3ccco3)CC2=O)cc1C (stereo not drawn) | inactive: 101%
CC(C)COc1ccc(-c2nonc2NC(=O)c2ccc(F)cc2)cc1 | inactive: 86%
O=C(NCCc1ccccc1)c1ccc(CSc2nc3ccncc3n2Cc2ccccc2F)cc1 | inactive: 76%
CCN(C(=O)c1nn(-c2ccc(C)cc2)c(=O)c2c1c1ccccc1n2C)c1ccc(F)cc1 | inactive: 84%
O=c1[nH]c(CSc2ncc(-c3ccc(F)cc3)n2Cc2ccco2)nc2ccccc12 | inactive: 68%
O=C(Nc1nnc(S(=O)(=O)N2CCCC2)s1)c1ccccc1F | active: 28%
CCOC(=O)c1cnc2c(C)cc(Cl)cc2c1NCCc1ccc(OC)c(OC)c1 | active: 31%
O=C(Cn1ncc2c([nH]c3ccccc32)c1=O)NCc1cccc(Cl)c1 | active: 20%
COc1ccc(NC(=O)C(C)n2c(C)c3cnn(-c4ccccc4)c(=O)c3c2C)cc1Cl (stereo not drawn) | inactive: 81%
CCOC(=O)c1cc(-c2ccc(F)cc2)n(CCC(=O)NCc2ccccc2OC)c1C | active: 52%
O=C(O)c1ccc(-c2nc3ccccc3[nH]2)cc1 | inactive: 86%
COc1ccc(Cn2ccc3nc(C)c(C(=O)NCc4ccc(OC)cc4OC)cc3c2=O)cc1 | active: 25%
COC(=O)c1ccccc1NC(=O)CCc1c(C)nc2c(c(C)nn2-c2ccccc2)c1C | inactive: 101%
COc1ccc(-c2cc(C(=O)N3CCN(c4ccc(F)cc4)CC3)no2)cc1OC | inactive: 57%
O=C(NC12CC3CC(CC(C3)C1)C2)N1CC2Cc3cccc(=O)n3C(C2)C1 (stereo not drawn) | inactive: 88%
COc1ccc(-n2nnc(-c3nc(-c4ccccc4C)no3)c2N)cc1Cl | inactive: 104%
CSc1nc(C)c(Oc2ccccc2)c(=O)n1C | inactive: 93%

SMILES | survival
COc1ccc(C2CC(=O)c3c([nH]c(C(=O)OC4CCCCCC4)c3C)C2)cc1OC (stereo not drawn) | inactive: 81%
COc1cccc(CNC(=O)CCCn2nc(C)n3c(cc4sccc43)c2=O)c1 | inactive: 75%
O=C(NCc1ccccc1)C(c1ccco1)N(C(=O)c1csnn1)c1ccccc1 (stereo not drawn) | inactive: 81%
COC(=O)c1ccc(Cn2nnc3sc4c(c3c2=O)CCCC4)cc1 | inactive: 74%
COc1cc2nc(Nc3ccc(F)cc3)nc(N)c2cc1OC | inactive: 92%
CCc1ccccc1OCCSc1nnc(-c2cc(OC)c(OC)c(OC)c2)o1 | inactive: 106%
CCOC(=O)c1cccc(NC(=O)C(Cc2ccccc2)NS(=O)(=O)c2cccc3nsnc23)c1 (stereo not drawn) | inactive: 73%
COc1ccc(NC(=O)CN(C)S(=O)(=O)c2cccc3nsnc23)cc1 | inactive: 106%
CC(C)Oc1ccc(CSCCN)cc1 | inactive: 90%
Cc1ccc(C)c(Nc2nc3nonc3nc2Nc2cccc(C)c2C)c1 | active: 2%
COc1ccc(Cl)cc1NC(=O)N1CCC(CN2CCCCCC2)CC1 | inactive: 79%
Cc1cccc(Cn2cc(C(=O)Nc3ccc(S(N)(=O)=O)cc3)ccc2=O)c1 | inactive: 88%
O=C(C1CCN(S(=O)(=O)Cc2ccccc2)CC1)N1CCN(c2ccccc2F)CC1 | inactive: 70%
CCc1ccccc1NC(=O)C(C)n1nc(-c2ccc(C)c(C)c2)ccc1=O (stereo not drawn) | inactive: 54%
CCCCNC(=O)CN1C(=O)COc2ccc(S(=O)(=O)N3CCCC3)cc21 | inactive: 83%
COc1ccc(CNC(=O)CN2C(=O)CSc3ccc(S(=O)(=O)N4CCCC4)cc32)cc1 | inactive: 85%
CC1=C(C(=O)OCC2CCCCC2)C(c2ccc(Cl)cc2Cl)CC(=O)N1 (stereo not drawn) | inactive: 82%
CSc1cccc(NC(=O)Cn2cnc(S(=O)(=O)N3CCCC3)c2)c1 | inactive: 94%
